Reference: the supplement of paper PMC4604168 (melanoma cell lines)
Some of the results follow. Most values come without repeats; read them as rough.
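Also: cells treated in 1,536-well plates, then fixed and DAPI-stained, with nuclei counted from automated high-throughput microscope images.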

What follows are compounds tested on UACC62 (assay: cell count relative to DMSO control; melanoma cells; higher = more viable cells). Conditions: library dose: standard library concentration; 72 h.
Compound `O=C(/C=C/c1cccnc1)NCCCCC1CCN(C(=O)c2ccccc2)CC1` + O=C(Nc1ccccc1)c1cc([N+](=O)[O-])ccc1Cl [GW9662] (first compound 0.05 µM, partner dose 10 µM) has a cell count of 68.9%.
`CC1(C)CCC(c2ccc(Cl)cc2)=C(CN2CCN(c3ccc(C(=O)NS(=O)(=O)c4ccc(N[C@H](CCN5CCOCC5)CSc5ccccc5)c(S(=O)(=O)C(F)(F)F)c4)cc3)CC2)C1` + N#Cc1c(O)c2c(-c3ccc(-c4ccccc4O)cc3)csc2[nH]c1=O [A769662] (first compound 2 µM, partner dose 10 µM) showed a cell count of 77%.
`CC1(C)CCC(c2ccc(Cl)cc2)=C(CN2CCN(c3ccc(C(=O)NS(=O)(=O)c4ccc(N[C@H](CCN5CCOCC5)CSc5ccccc5)c(S(=O)(=O)C(F)(F)F)c4)cc3)CC2)C1` + COc1cc2ncnc(Nc3ccc(Oc4ccccc4)cc3)c2cc1OC [SrcI1] (first compound 2 µM, partner dose 10 µM) was tested, and the cell count was 47.3%.
Work on `O=C(/C=C/c1cccnc1)NCCCCC1CCN(C(=O)c2ccccc2)CC1` + N#Cc1c(O)c2c(-c3ccc(-c4ccccc4O)cc3)csc2[nH]c1=O [A769662] (first compound 0.05 µM, partner dose 10 µM) yielded a cell count of 89%.
For `CC1(C)CCC(c2ccc(Cl)cc2)=C(CN2CCN(c3ccc(C(=O)NS(=O)(=O)c4ccc(N[C@H](CCN5CCOCC5)CSc5ccccc5)c(S(=O)(=O)C(F)(F)F)c4)cc3)CC2)C1` + CCCCCCCCc1ccc(CCC(N)(CO)CO)cc1 [fingolimod] (first compound 2 µM, partner dose 10 µM), the cell count was 24.1%.
Work on `CC1(C)CCC(c2ccc(Cl)cc2)=C(CN2CCN(c3ccc(C(=O)NS(=O)(=O)c4ccc(N[C@H](CCN5CCOCC5)CSc5ccccc5)c(S(=O)(=O)C(F)(F)F)c4)cc3)CC2)C1` + O=S(=O)(c1ccccc1)N(CC(F)(F)F)c1ccc(C(O)(C(F)(F)F)C(F)(F)F)cc1 [T0901317] (first compound 2 µM, partner dose 7 µM) yielded a cell count of 71.1%.
Work on `O=C(/C=C/c1cccnc1)NCCCCC1CCN(C(=O)c2ccccc2)CC1` + CC(C)CCN1c2nc(Nc3cc(F)c(O)c(F)c3)ncc2N(C)C(=O)C1C [BID1870] (first compound 0.05 µM, partner dose 1 µM) yielded a cell count of 73.9%.
In the case of `O=C(/C=C/c1cccnc1)NCCCCC1CCN(C(=O)c2ccccc2)CC1` + Cc1cc([N+](=O)[O-])ccc1NS(=O)(=O)c1cc(Cl)ccc1Cl [FH535] (first compound 0.05 µM, partner dose 5 µM), the cell count is reported as 91.3%.
Compound `Cc1ccc(Nc2nccc(N(C)c3ccc4c(C)n(C)nc4c3)n2)cc1S(N)(=O)=O` [Pazopanib] + O=C(Nc1ccccc1)c1cc([N+](=O)[O-])ccc1Cl [GW9662] (first compound 2 µM, partner dose 10 µM) has a cell count of 57.4%.
`Cc1ccc(Nc2nccc(N(C)c3ccc4c(C)n(C)nc4c3)n2)cc1S(N)(=O)=O` [Pazopanib] + COc1ccc(COc2ccc(Cc3cnc(N)nc3N)cc2OC)cc1 [GW2580] (first compound 2 µM, partner dose 5 µM) gave a cell count of 81.8%.
